# Test results: the supplement of paper PMC3334620
# The full ranking holds about 33,000 sequences; the median of “E-score (-0.5 to 0.5)” is about -0.01, and the highest 2% start at about 0.26. The list shows a part of the results.
# Target: Ste12 (UniProt P13574)
# Assay: PBM E-score (8-mer binding enrichment) (E-score (-0.5 to 0.5)); higher = stronger / more preferred TF binding; most listed sequences are background and not binding sites
# Conditions: protein concentration: 200 nM; construct: GST-DNA-binding domain
# How it was run: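 Universal all-10-mer Agilent arrays, fresh or stripped once, were converted to double-stranded form by primer extension. GST-tagged yeast transcription factors from PURExpress in vitro transcription/translation, full-length or DNA-binding domain only, were applied at about 100-200 nM and detected with fluorescent anti-GST. After masliner normalisation, the Universal PBM Analysis Suite scored each ungapped eight-base word together with its reverse complement by E-score.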
row,Sequence,PBM E-score
1,TGCCGCAA,0.215
2,CTCACCAG,-0.0408
3,ACCAAGTC,-0.208
4,CGGTGCAA,-0.114
5,ACGCATGA,0.0604
6,CCCCGACA,0.0523
7,AATTCCGT,0.0756
8,CAATTCAC,0.00493
9,TGAGCACA,-0.183
10,ACGTACCT,-0.174
11,CCTCACGC,0.0834
12,AAGAAGAG,-0.00818
13,CTCTGGGA,-0.116
14,AGTCCACC,-0.126
15,AGTGGGCA,-0.133
16,CGAGATAC,0.0175
17,GTGGTCAA,-0.232
18,GAAATACA,-0.00127
19,ACGCGAAC,-0.0367
20,ACCATGGA,-0.123
21,GCGTGGAC,-0.0952
22,CGTGTCTA,0.036

row,Sequence,PBM E-score
1,GCGACGCA,-0.0253
2,TGTACTAA,0.053
3,CTAACTGA,0.109
4,CGGGCTAC,-0.239
5,AGCTTTTA,-0.0867
6,CGTCCACG,-0.172
7,CAAGTAGC,-0.0735
8,ATAATTCG,-0.0149
9,GATCAATA,0.0263
10,CCCTCCAC,-0.0433
11,CAGCAGGG,-0.0615
12,CGTCACAC,0.0677
13,GATATCCA,0.159
14,ATCAAAAA,0.316
15,CGTGACTC,-0.2
16,ACCGCGCG,0.273
17,TATCCTGA,0.0769
18,ATAAGACG,-0.0172
19,ATTACCAG,0.02
20,ACATCTCA,-0.0976
21,TTCTAGAA,0.127
22,ACAACTGG,-0.0989

row,Sequence,PBM E-score
1,ACGGGTCC,-0.178
2,GACGTTGA,0.0286
3,CGGGCCGC,0.0103
4,AGCAGGCG,0.00011
5,GCACAGGC,-0.173
6,CAGACGGC,-0.341
7,TACAAAAA,0.237
8,AACATTAG,0.0988
9,GCTTTGAA,-0.0635
10,TGATCCCA,-0.0532
11,CACTACAG,-0.0202
12,GGTAACCA,-0.12
13,CGGAGTAC,-0.215
14,ATGTAGTC,0.0246
15,GACGGGGA,0.182
16,CGCGGGCC,0.0929
17,CAGATGCC,-0.125
18,CCATTCAG,0.037
19,CGTGGAAC,-0.0152
20,ATTGTGGA,0.0744
21,ACGTGAAC,-0.226
22,GGATGGGA,0.0601

row,Sequence,PBM E-score
1,CATGGTAC,-0.0268
2,GCTTGGTA,0.0107
3,AGGTCCTA,-0.0988
4,CATCGGGG,-0.0738
5,AAAGGCTG,-0.034
6,CGCACTTA,0.0975
7,TCGGTACA,0.0794
8,ACGTCAGG,-0.152
9,CACTTCTA,0.00316
10,CTGATCAC,-0.0885
11,AAGAACGA,0.0772
12,CCCGCAGG,0.00157
13,TAGTACAA,0.00627
14,CCCGTGAG,-0.158
15,AAAAGCCA,0.13
16,CCGTGCAC,-0.129
17,AAATGCCA,0.0331
18,AGAAAGTA,0.138
19,GGCGCGAC,0.227
20,ACCCACTA,-0.00205
